Test results reported in patent US10294228B2, “Breathing control modulating compounds, and methods of making and using same” (NEURAD LTD., priority 2015, dated 2019).
Structures can show the parent of a compound that is named as a salt. At least one read-out could not be matched to a standard name with certainty.

System: anesthetized rats
Experiment: Anesthetized rat spirometry screening assay (ventilatory activity, minute volume)
Assay type: in vivo
Conditions: ratio compared to N-(2,6-Bis-propylamino-pyrimidin-4-yl)-O,N-dimethyl-hydroxylamine hydrogen sulfate; for Peak ratio @ 0.3 dose*: 0.3 mg/kg IV; for Peak ratio @ 3.0 dose *: 3.0 mg/kg IV
Protocol: Anesthetized rats provide a quick method of screening compounds for respiratory and cardiovascular activity.
Rats were initially anesthetized with 3% isoflurane (inhaled) and femoral artery and vein cannulas were surgically inserted. Once cannulated, the rats were transitioned to urethane anesthesia (1.5 g/kg; i.v.) and a tracheal cut-down was performed. After placing the tracheal cannula, it was connected to a pneumotachometer to record respiratory airflow from which respiratory rate (RR), tidal volume (VT), and their product minute volume (MV, also termed VE) were derived. After the surgical preparation was complete, animals were allowed to stabilize for 30 minutes while respiratory rate, tidal volume, minute volume, blood pressure and heart rate were recorded continuously. Arterial blood gases (ABG) were obtained from arterial blood collected from the femoral artery. ABG measurements were taken before and 6 minutes after vehicle and each dose of compound administered. Compounds being screened were administered via bolus injections through the venous cannula followed by a saline flush (total time of administration is approximately 30 seconds), and the animal was monitored for at least 6 minutes for changes in cardiovascular efforts. Compounds were prepared in formulations identified to ensure optimal solubility. As such, vehicle controls were matched for the formulation of each compound tested. Dosing of the compounds being screened was conducted at 0.1 and/or 0.3 mg/kg and/or 3 mg/kg The next dose was not administered until all cardiovascular and respiratory measures had returned to baseline levels. The positive control compounds used were N-[4,6-di-(n-propylamino)-[1,3,5]triazin-2-yl]-N,O-dimethyl-hydroxylamine or N-[2,6-di-(n-propylamino)-[1,3]pyrimidin-4-yl]-N,O-dimethyl-hydroxylamine (both administered at the end of each screening experiment (0.3 mg/kg dose) to validate the experiment and also to serve as a measure with which the compound being screened could be compared.
Data were analyzed by collecting cardiovascular and respiratory data in 30 second averages (BINs). Data were plotted 2 minutes before challenge and then 6 minutes after challenge.

Structure (SMILES): CCCNc1nc(NC)nc2c(NCC(O)CO)nc(NC)nc12 (stereo not shown) [Compound 75a, 3-(2,6-Bis-methylamino-8-propylamino-pyrimido[5,4-d]pyrimidin-4-ylamino)-propane-1,2-diol Hydrochloride]
- Peak ratio @ 0.3 dose*: 0.79
- Peak ratio @ 3.0 dose *: 0.90

Structure (SMILES): CCNc1nc(NCC)c2nc(NC[C@@H](C)O)nc(NCC)c2n1 [Compound 186, (R)-1-(4,6,8-Tris-ethylamino-pyrimido[5,4-d]pyrimidin-2-ylamino)-propan-2-ol]
- Peak ratio @ 0.3 dose*: 0.26
- Peak ratio @ 3.0 dose *: 0.62

Structure (SMILES): C=CCNc1nc(NC)c2nc(NC[C@H](C)O)nc(NC)c2n1 [Compound 143, (S)-1-(6-Allylamino-4,8-bis-methylamino-pyrimido[5,4-d]pyrimidin-2-ylamino)-propan-2-ol]
- Peak ratio @ 0.3 dose*: 0.51
- Peak ratio @ 3.0 dose *: 0.94

Structure (SMILES): CCCNc1nc(NC)nc2c(NCCCO)nc(NC)nc12 [Compound 8a, 3-(2,6-Bis-methylamino-8-propylamino-pyrimido[5,4-d]pyrimidin-4-ylamino)-propan-1-ol hydrochloride]
- Peak ratio @ 0.3 dose*: 0.22

Structure (SMILES): CCCNc1nc(NC)nc2c(NC[C@H](C)O)nc(NC)nc12 [Compound 12a, (S)-1-(2,6-Bis-methylamino-8-propylamino-pyrimido[5,4-d]pyrimidin-4-ylamino)-propan-2-ol hydrochloride]
- Peak ratio @ 0.3 dose*: 0.70

Structure (SMILES): CCCNc1nc(NC)c2nc(NCC(C)O)nc(NC)c2n1 (stereo not shown) [Compound 95, 1-(4,8-Bis-methylamino-6-propylamino-pyrimido[5,4-d]-pyrimidin-2-ylamino)-propan-2-ol]
- Peak ratio @ 0.3 dose*: 0.90

Structure (SMILES): CCCNc1nc(NCC)nc2c(NCC(C)(C)O)nc(NCC)nc12 [Compound 32a, 1-(2,6-Bis-ethylamino-8-propylamino-pyrimido[5,4-d]-pyrimidin-4-ylamino)-2-methyl-propan-2-ol hydrochloride]
- Peak ratio @ 0.3 dose*: 0.69

Structure (SMILES): CCCNc1nc(NC)c2nc(N[C@H]3c4ccccc4C[C@@H]3O)nc(NC)c2n1 [Compound 125, (1S,2S)-1-(4,8-Bis-methylamino-6-propylamino-pyrimido[5,4-d]-pyrimidin-2-ylamino)-indan-2-ol]
- Peak ratio @ 0.3 dose*: 0.26
- Peak ratio @ 3.0 dose *: 0.57

Structure (SMILES): CNc1nc(NCC(C)(C)O)nc2c(NC)nc(NCC(F)F)nc12 [Compound 107, 1-[6-(2,2-Difluoro-ethylamino)-4,8-bis-methylamino-pyrimido[5,4-d]pyrimidin-2-ylamino]-2-methyl-propan-2-ol]
- Peak ratio @ 0.3 dose*: 0.11
- Peak ratio @ 3.0 dose *: 0.74

Structure (SMILES): C=C(C)CNc1nc(NCC)c2nc(NC[C@H](C)O)nc(NCC)c2n1 [Compound 175, (S)-1-[4,8-Bis-ethylamino-6-(2-methyl-allylamino)-pyrimido[5,4-d]-pyrimidin-2-ylamino]-propan-2-ol]
- Peak ratio @ 0.3 dose*: 0.40
- Peak ratio @ 3.0 dose *: 0.71

Structure (SMILES): CCCNc1nc(NCC(F)(F)F)nc2c(NCC(C)(C)O)nc(NCC(F)(F)F)nc12 [Compound 34a, 2-Methyl-1-[8-propylamino-2,6-bis-(2,2,2-trifluoro-ethylamino)-pyrimido[5,4-d]pyrimidin-4-ylamino]-propan-2-ol Hydrochloride]
- Peak ratio @ 0.3 dose*: 0.01

Structure (SMILES): CC[C@@H](C)Nc1nc(NC)c2nc(NC[C@@H](C)O)nc(NC)c2n1 [Compound 100, (R)-1-[6-((R)-sec-Butylamino)-4,8-bis-methylamino-pyrimido[5,4-d]pyrimidin-2-ylamino]-propan-2-ol]
- Peak ratio @ 0.3 dose*: 0.20
- Peak ratio @ 3.0 dose *: 0.86

Structure (SMILES): C=CCNc1nc(NC)c2nc(NC[C@@H](C)O)nc(NC)c2n1 [Compound 145, (R)-1-(6-Allylamino-4,8-bis-methylamino-pyrimido[5,4-d]pyrimidin-2-ylamino)-propan-2-ol]
- Peak ratio @ 0.3 dose*: 0.22
- Peak ratio @ 3.0 dose *: 0.75

Structure (SMILES): CNc1nc(NCC(C)(C)O)c2nc(NC)nc(NCC(F)F)c2n1 [Compound 36a, 1-[8-(2,2-Difluoro-ethylamino)-2,6-bis-methylamino-pyrimido[5,4-d]pyrimidin-4-ylamino]-2-methyl-propan-2-ol Hydrochloride]
- Peak ratio @ 0.3 dose*: 0.20

Structure (SMILES): CCCNc1nc(NC)nc2c(NC[C@@H](C)O)nc(NC)nc12 [Compound 14a, (R)-1-(2,6-Bis-methylamino-8-propylamino-pyrimido[5,4-d]pyrimidin-4-ylamino)-propan-2-ol Hydrochloride]
- Peak ratio @ 0.3 dose*: 0.46

Structure (SMILES): CNc1nc(NCc2ccccc2)c2nc(NC)nc(NCCO)c2n1 [Compound 64a, 2-(8-Benzylamino-2,6-bis-methylamino-pyrimido[5,4-d]-pyrimidin-4-ylamino)-ethanol Hydrochloride]
- Peak ratio @ 0.3 dose*: 0.17
- Peak ratio @ 3.0 dose *: 0.83

Structure (SMILES): CC[C@@H](C)Nc1nc(NC)c2nc(NC[C@H](C)O)nc(NC)c2n1 [Compound 101, (S)-1-[6-((R)-sec-Butylamino)-4,8-bis-methylamino-pyrimido[5,4-d]pyrimidin-2-ylamino]-propan-2-ol]
- Peak ratio @ 0.3 dose*: 0.08
- Peak ratio @ 3.0 dose *: 0.52

Structure (SMILES): CCCNc1nc(NCC(F)F)nc2c(NCC(C)(C)O)nc(NCC(F)F)nc12 [Compound 33a, 1-[2,6-Bis-(2,2-difluoro-ethylamino)-8-propylamino-pyrimido[5,4-d]-pyrimidin-4-ylamino]-2-methyl-propan-2-ol Hydrochloride]
- Peak ratio @ 0.3 dose*: 0.14
- Peak ratio @ 3.0 dose *: 0.71

Structure (SMILES): CNc1nc(N(C)C)nc2c(NC)nc(NCCO)nc12 [Compound 92, 2-(6-Dimethylamino-4,8-bis-methylamino-pyrimido[5,4-d]-pyrimidin-2-ylamino)-ethanol]
- Peak ratio @ 0.3 dose*: 0.36
- Peak ratio @ 3.0 dose *: 1.10

Structure (SMILES): CNc1nc(NC[C@H](C)O)nc2c(NC)nc(N)nc12 [Compound 152, (S)-1-(6-Amino-4,8-bis-methylamino-pyrimido[5,4-d]-pyrimidin-2-ylamino)-propan-2-ol]
- Peak ratio @ 0.3 dose*: 0.04
- Peak ratio @ 3.0 dose *: 0.52

Structure (SMILES): C=C(C)CNc1nc(NCC)c2nc(NC[C@@H](C)O)nc(NCC)c2n1 [Compound 174, (R)-1-[4,8-Bis-ethylamino-6-(2-methyl-allylamino)-pyrimido[5,4-d]-pyrimidin-2-ylamino]-propan-2-ol]
- Peak ratio @ 0.3 dose*: 0.47
- Peak ratio @ 3.0 dose *: 0.75

Structure (SMILES): CC[C@H](C)Nc1nc(NC)nc2c(NCC(C)(C)O)nc(NC)nc12 [Compound 42a, 1-[8-((S)-sec-Butylamino)-2,6-bis-methylamino-pyrimido[5,4-d]-pyrimidin-4-ylamino]-2-methyl-propan-2-ol Hydrochloride]
- Peak ratio @ 0.3 dose*: 0.60
- Peak ratio @ 3.0 dose *: 1.17

Structure (SMILES): CNc1nc(NCCOC)c2nc(NC)nc(NCCO)c2n1 [Compound 56a, 2-[8-(2-Methoxy-ethylamino)-2,6-bis-methylamino-pyrimido[5,4-d]pyrimidin-4-ylamino]-ethanol Hydrochloride]
- Peak ratio @ 0.3 dose*: 0.02

Structure (SMILES): CCCNc1nc(NC)nc2c(N(C)CC(C)(C)O)nc(NC)nc12 [Compound 76, 1-[(2,6-Bis-methylamino-8-propylamino-pyrimido[5,4-d]pyrimidin-4-yl)-methyl-amino]-2-methyl-propan-2-ol]
- Peak ratio @ 0.3 dose*: 0.22
- Peak ratio @ 3.0 dose *: 0.42

Structure (SMILES): CCCNc1nc(NC)c2nc(NC[C@H](C)O)nc(NC)c2n1 [Compound 113, (S)-1-(4,8-Bis-methylamino-6-propylamino-pyrimido[5,4-d]pyrimidin-2-ylamino)-propan-2-ol]
- Peak ratio @ 0.3 dose*: 0.49
- Peak ratio @ 3.0 dose *: 0.84

Structure (SMILES): CNc1nc(NCC(F)F)c2nc(NC)nc(NCCO)c2n1 [Compound 60a, 2-[8-(2,2-Difluoro-ethylamino)-2,6-bis-methylamino-pyrimido[5,4-d]-pyrimidin-4-ylamino]-ethanol Hydrochloride]
- Peak ratio @ 0.3 dose*: 0.10
- Peak ratio @ 3.0 dose *: 0.79

Structure (SMILES): CNc1nc(NCC(C)(C)O)c2nc(NC)nc(NCc3ncccn3)c2n1 [Compound 38a, 1-{2,6-Bis-methylamino-8-[(pyrimidin-2-ylmethyl)-amino]-pyrimido[5,4-d]pyrimidin-4-ylamino}-2-methyl-propan-2-ol Hydrochloride]
- Peak ratio @ 0.3 dose*: 0.14
- Peak ratio @ 3.0 dose *: 0.22

Structure (SMILES): CCNc1nc(NCC)c2nc(NC[C@H](C)O)nc(NCC)c2n1 [Compound 165, (S)-1-(4,6,8-Tris-ethylamino-pyrimido[5,4-d]pyrimidin-2-ylamino)-propan-2-ol]
- Peak ratio @ 0.3 dose*: 0.61
- Peak ratio @ 3.0 dose *: 0.93

Structure (SMILES): CCCNc1nc(NC)nc2c(N[C@@H]3CCCC[C@H]3O)nc(NC)nc12 [Compound 85, (1R,2R)-2-(2,6-Bis-methylamino-8-propylamino-pyrimido[5,4-d]pyrimidin-4-ylamino)-cyclohexanol]
- Peak ratio @ 0.3 dose*: 0.62
- Peak ratio @ 3.0 dose *: 0.74

Structure (SMILES): CCCNc1nc(NC)nc2c(N[C@@H]3c4ccccc4C[C@H]3O)nc(NC)nc12 [Compound 80, (1R,2R)-1-(2,6-Bis-methylamino-8-propylamino-pyrimido[5,4-d]-pyrimidin-4-ylamino)-indan-2-ol]
- Peak ratio @ 0.3 dose*: 0.36
- Peak ratio @ 3.0 dose *: 0.48
